Experimental data: the supplement of paper PMC11417369
This is one part of the list.

test system: PfAP2-HC AP2 domain (GST-tagged); experiment: gcPBM binding intensity (ln(normalized median fluorescence intensity)); higher = stronger DNA binding
Outline: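 The highest Masliner-normalised natural-log median intensity across replicate spots of either probe orientation is reported as binding intensity. GST-tagged P. falciparum DNA-binding domains expressed in E. coli were applied for 1 h to an Agilent 4 × 180k array of primer-extended double-stranded 36-bp intergenic genomic probes plus negative controls, and bound protein was detected with Alexa488 anti-GST antibody and scanned at 488 nm.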

Row | Sequence | gcPBM binding intensity (ln)
1 | GTATAATTGGAAATTACACACCTTAGAATGTAACAT [CACACA_site4059] | 9.68
2 | ATTATAATATATATATGTACATATATATATAATACT [XGTACX_site5092] | 9.66
3 | TATAATATACTATGTGGTACATATATATATTTATAG [XGTACX_site4556] | 9.77
4 | ATATATAATATTGGTGGTACAAGGGTATTTTATATT [XGTACX_site8215] | 9.84
5 | TCATTTATTTTTCTTTGTACACAAAAGTTTTTATGT [XGTACX_site690] | 9.81
6 | CATATGTTATATGTAGTGCATTACTATAGGATTTAT [GTGCAC_site9860] | 9.6
7 | TATTTTGCAAAATGTGCATGTTGTGTATTATGTGAC [TGCATGCA_site59] | 9.77
8 | TATTTTTAATTTTTTAATGGTTTAATATTTTTATAT [CACACA_negctrl_site1186] | 9.56
9 | TGGTATGCAATATTGGTGCGTATATATTTTAAAGGG | 9.62
10 | TATTCTAAGATAAGTGGTACTTATATATAATATATA [XGTACX_site8316] | 9.27
11 | TCTTTAGCTTCTTCTTTTTTTTTTTTTTTTTTTTTT [XGTACX_negctrl_site518] | 9.51
12 | ATATATATATATATATGTACATAAACATATATATAT [XGTACX_site1064] | 9.68
13 | ATCCGTGGGTGAAATACACACATGATAATGTGAATG [CACACA_site4662] | 9.68
14 | ATAAATGAACAAGTGGCACACACACCGTATAACTAA [CACACA_site9047] | 10.4
15 | TGAAAAATATAAGGTTGTACTTACATCGGGAATAAT [XGTACX_site4701] | 9.73
16 | AATTATGTGTGTCAATGTACACGATTTACATAATAT [XGTACX_site5150] | 9.84
17 | AATATATGGTTTCTTGATATTAAATTCAATTTAATG [CACACA_negctrl_site69] | 9.51
18 | AATCTTTGTAATAAAAGTACATTAATTTTATTAATA [XGTACX_site8325] | 9.37
19 | ACACATACAACGTGGTGTACAAATAATTATAATCAA [XGTACX_site2287] | 10.1
20 | TAAGTATATATATTTACACACATTTGTTTTTTTTTA [CACACA_site3784] | 9.81
21 | TTTTAAATACTTTATTGTACATTATATATATATATA [XGTACX_site7021] | 9.68
22 | AAAAAAAAAAAAAAAAGTACATATAATAAATAATGA [XGTACX_site7931] | 9.52
23 | TATATCTTAATATTTACACACATGCGCACCCATAAA [CACACA_site5349] | 9.95

Row | Sequence | gcPBM binding intensity (ln)
24 | ATATAAACACTGAATGCATGCACATATATATATATA [TGCATGCA_site940] | 10.6
25 | GGGGGGGGAGGGTGAATACACACGTAATAATCATAA [CACACA_site1716] | 9.69
26 | TTTTTTTTTACTAACTGTACTAAAGAAAAAAAAGGG [XGTACX_site3519] | 9.32
27 | ATAAAGGAATTTTATACACACAACATATATATATAT [CACACA_site2861] | 9.76
28 | ATGTGTATATGTGTGGGTACTTAATTTTTTTCTTTA [XGTACX_site5351] | 10
29 | CGTATTATTATATAAACACACAAGGGGGCATGTATA [CACACA_site745] | 9.92
30 | AATTCTGGCAAAATAACACACACATATATTTTATAT [CACACA_site9064] | 10.1
31 | GTTATAATTGAACTAGTGCATAAATATATTTTAATT [GTGCAC_site9851] | 9.55
32 | TATCTTTTTTTTAATACACACAAATATATGAAAGTA [CACACA_site4161] | 9.52
33 | AGTATAACTTTTGCGCGTACACACATTTATCCTCTT [XGTACX_site429] | 10.4
34 | TTTGAATACTGAATGGTGCAAATTGTTCTCCCCATG | 9.44
35 | TATATTAAAATAATCACACACATCAATTAATGGTAA [CACACA_site1234] | 10
36 | TATAATAATATTTACACACGCATATGTTATATATAT [CACACA_site1477] | 9.79
37 | TACAAATGCGTATGTCAATATATGGAGAAATAAATA [TGCATGCA_negctrl_site290] | 9.56
38 | TGTATATGGTTTGTGCAAAAATTTATTAATGTGTAA [TGCATGCA_negctrl_site374] | 9.71
39 | ATTTGTATATACATATGTACACATGTAGGCTCATAA [XGTACX_site1709] | 9.79
40 | TTTCGTAAACTTTATGCACACACATATACATATTTC [CACACA_site8146] | 10.2
41 | TGACTACATAAAATGACACACACAAACTTTAAAATT [CACACA_site9151] | 10.2
42 | ATATATTTTTAGCACAGTACAATATAATTAAATATA [XGTACX_site6779] | 9.62
43 | ATATGCTAATAAAATTGTACATATTATTCATATTGT [XGTACX_site2344] | 9.68
44 | ATAAATACTTTTTGGTGTACACTTTTAAATGAAAAA [XGTACX_site3042] | 9.52
45 | ATTTTTCCTCTCTTTTGTACTTATATATATATATAT [XGTACX_site7405] | 9.88
46 | CAATTAAAGAAAAACAGTACGTGTATCAAACATCCT [XGTACX_site8990] | 9.94

Row | Sequence | gcPBM binding intensity (ln)
47 | ATATTATATAATAATGCATGCACCTTATTTTCATTT [TGCATGCA_site405] | 9.89
48 | AACAAAATAAAAATAACACACACATTTATATATATA [CACACA_site8313] | 10.6
49 | ATTATATTATTTTAAAGTACACACATATATTAATAT [XGTACX_site4769] | 9.9
50 | AAAAGTTGTTTATAATGTACAAGGTAGAAAAAAACA [XGTACX_site1454] | 9.67
51 | TAAATGGATTGTTCAGGTACACATAAATATGATATT [XGTACX_site6963] | 9.57
52 | TAAAAATAATATATTTGTACATATGTGTATACATAA [XGTACX_site741] | 9.48
53 | TATAAATACATACATACACACATATATATATATATT [CACACA_site6116] | 10
54 | TCCTAAAAAAAAAAAAAAAATGAAAAAGGAAAAAAA [CACACA_negctrl_site1646] | 9.3
55 | CAAGCACAGAAACACACACACACACCGACACAGACA [CACACA_site4359] | 10.9
56 | AAAAAAAAAAAAAAAAGTACTAAATGTAAAAGAATA [XGTACX_site2164] | 9.6
57 | AATGTATTAAAATTACGTACATATGCACATTTTATA [XGTACX_site5046] | 9.69
58 | TTTTTTATTTTGTGCACACACATAAAAATATAAATA [CACACA_site6497] | 9.84
59 | TACTCTTTCCAGAAGTGTACATAGAAATAATTACAT [XGTACX_site2668] | 9.55
60 | TATATATGTATGTATGCATGCCCTTTTTTAAAAAAA [TGCATGCA_site434] | 9.59
61 | AAAAAAAAAAAAAAAAAAATAAAAAATAAATAAATA [CACACA_negctrl_site1498] | 9.23
62 | AAGAAAAAACAAACATGTACACATAATTTAGTTTTT [XGTACX_site3121] | 9.67
63 | TAGTATTATTATTATGCACACAAAAATATTTATACA [CACACA_site9219] | 9.69
64 | TTTTTTTTTTTTTTTTGTACATAATTATATATTTAC [XGTACX_site7540] | 9.33
65 | AGCATTTCTTTTACATGTACATAATATTTTTAATAA [XGTACX_site1968] | 9.7
66 | TTTGAAAAGTATGAGGTGCAAAAAATGTAATGAAAT | 9.85
67 | TATATTATTATGCATAGTACGTACTGTGATAAGAAT [XGTACX_site2956] | 9.73
68 | TTTTTCTGTCGTTGTTGTACTTGAGGAGTAACAATT [XGTACX_site7852] | 9.64
69 | CATTTTAAAACAGACACACACCAAAAAAAAAAAAAA [CACACA_site6259] | 9.88

Row | Sequence | gcPBM binding intensity (ln)
70 | TACAAATACATTACATGTACATATTTAATAATATCA [XGTACX_site2075] | 9.66
71 | TTTTCAATTAATAATACACACATGTATATATTATTA [CACACA_site3311] | 9.64
72 | AAGAAAAATATATATATAAATAAATAAATATATATA [TGCATGCA_negctrl_site330] | 9.68
73 | TTTCTGATATTTTTATATTTTCTTATATATATATAT [GTGCAC_negctrl_site652] | 9.83
74 | TTTAAATTTTAATATGCACACAAAATGTTATATTAA [CACACA_site8015] | 9.41
75 | GTATATAAGTATATATGTACATATATTTTATATATA [XGTACX_site4745] | 9.68
76 | AATACGAAGGATAAGAGTACTAATTAAATAAATGAA [XGTACX_site523] | 9.79
77 | ATATAAGAATAAATAGTGCAAAATAAATGATTATTT | 9.86
78 | TTTTTTTTTTTTTTGGTGCGATCTTTTAAATGATCC | 9.26
79 | TTTTATAATTTAAAATAATGAAACTTCTTTCTATTT [TGCATGCA_negctrl_site324] | 9.41
80 | GCCTTTTTATTTAGAACACACACAAAAAAAAAAAAA [CACACA_site8520] | 9.67
81 | TATTATATCGAACACTGTACTTTTTTATTCAACCTA [XGTACX_site493] | 9.68
82 | ATATATATATATATAGTGCAAATATCTTCTTTATAA | 9.68
83 | TAATAAACCAAACTAAACAATATATCAAAAAGCACA [CACACA_negctrl_site269] | 9.91
84 | AATAATAAATATATATATATATATATATATATATTT [CACACA_negctrl_site786] | 9.49
85 | TATATACAAAATGCCTGTACATATATATTTATTTAT [XGTACX_site761] | 9.77
86 | CATGCAAAAAATTCCACACACACACCCACATATAAA [CACACA_site1229] | 10.8
87 | CTTTCTTATTTGAACGCATGCATTTGTACCTTTTAT [TGCATGCA_site671] | 9.95
88 | TATTTAATAAAGAAATAAAAATAAAGAAAAAAAAAA [CACACA_negctrl_site74] | 9.49
89 | ACCTACATAACATACACACGCATATATATAATTTTA [CACACA_site2847] | 9.97
